{"source": "the supplement of paper PMC12217912", "parents": {"B1": {"name": "TEV protease; numbered along this chain (parent)", "chain": "MGESLFKGPRDYNPISSSICHLTNESDGHTTSLYGIGFGPFIITNKHLFRRNNGTLVVQSLHGVFKVKDTTTLQQHLVDGRDMIIIRMPKDFPPFPQKLKFREPQREERICLVTTNFQTKSMSSMVSDTSCTFPSGDGIFWKHWIQTKDGQCGSPLVSTRDGFIVGIHSASNFTNTNNYFTSVPKNFMELLTNQEAQQWVSGWRLNADSVLWGGHKVFMVKPEEPFQPVKEATQL"}}, "variants_of": "B1", "experiment": "raw area under fraction-flipped curve 0-4 h after induction (AUC4h, not background-subtracted), DNA-recorder readout of cleavage of the substrate (dimensionless); higher = more cleavage of the substrate by the protease variant", "settings": "temperature: 34 °C; time window: 0-4 h after rhamnose induction", "experimental": "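In vivo DNA recorder in E. coli TOP10(DE3) ΔrhaA at 34 °C. Each TEVp single-site mutant (parent TEVp 0) is paired with a single-site variant of the 7-mer TEVs (canonical ENLYFQ|S). The substrate sits between flexible linkers in a Bxb1-sfGFP-TEVs-SsrA fusion, so cleavage stabilises Bxb1 and speeds flipping of a recombination array, read by NGS. The value is the raw area under the fraction-flipped curve over 0-4 h after rhamnose induction (AUC4h), with ≥20 reads per time point. It is not background-subtracted; inactive controls average about 0.047.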", "note": "The list shows a part of the results. Sequences were assembled here from the parent chain. Inactive controls read about 0.05.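 Also: Bxb1 expression induced with 0.2% (w/v) L-rhamnose at OD600 near 0.5, cultures sampled hourly, flipped fraction per protease–substrate barcode pair counted by paired-end Illumina sequencing.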", "data": [{"variant": "R81E", "values": [{"measurement": "area with substrate ENLYDQS", "value": 0.067}, {"measurement": "area with substrate ENLYEQS", "value": 0.0574}, {"measurement": "area with substrate ENLYHQS", "value": 0.0625}, {"measurement": "area with substrate ENLYKQS", "value": 0.0724}, {"measurement": "area with substrate ENLYNQS", "value": 0.0622}, {"measurement": "area with substrate ENLYPQS", "value": 0.0648}, {"measurement": "area with substrate ENLYQQS", "value": 0.0682}, {"measurement": "area with substrate ENLYSQS", "value": 0.0542}, {"measurement": "area with substrate ENLYVQS", "value": 0.0601}, {"measurement": "area with substrate ENLYWQS", "value": 0.0705}, {"measurement": "area with substrate ENLYYQS", "value": 0.055}]}, {"variant": "L190W", "values": [{"measurement": "area with substrate ENLYDQS", "value": 0.0611}, {"measurement": "area with substrate ENLYEQS", "value": 0.0656}, {"measurement": "area with substrate ENLYGQS", "value": 0.0664}, {"measurement": "area with substrate ENLYHQS", "value": 0.0465}, {"measurement": "area with substrate ENLYMQS", "value": 0.0801}, {"measurement": "area with substrate ENLYNQS", "value": 0.0656}, {"measurement": "area with substrate ENLYSQS", "value": 0.0525}, {"measurement": "area with substrate ENLYWQS", "value": 0.0674}, {"measurement": "area with substrate ENLYYQS", "value": 0.0709}]}, {"variant": "F92A", "values": [{"measurement": "area with substrate ENLYDQS", "value": 0.064}, {"measurement": "area with substrate ENLYEQS", "value": 0.0614}, {"measurement": "area with substrate ENLYHQS", "value": 0.0651}, {"measurement": "area with substrate ENLYIQS", "value": 0.121}, {"measurement": "area with substrate ENLYKQS", "value": 0.076}, {"measurement": "area with substrate ENLYLQS", "value": 0.11}, {"measurement": "area with substrate ENLYPQS", "value": 0.0744}, {"measurement": "area with substrate ENLYRQS", "value": 0.067}, {"measurement": "area with substrate ENLYVQS", "value": 0.159}, {"measurement": "area with substrate ENLYWQS", "value": 0.0769}]}, {"variant": "H62M", "values": [{"measurement": "area with substrate ENLYDQS", "value": 0.0748}, {"measurement": "area with substrate ENLYHQS", "value": 0.0718}, {"measurement": "area with substrate ENLYIQS", "value": 0.0803}, {"measurement": "area with substrate ENLYKQS", "value": 0.1}, {"measurement": "area with substrate ENLYMQS", "value": 0.0919}, {"measurement": "area with substrate ENLYNQS", "value": 0.104}, {"measurement": "area with substrate ENLYQQS", "value": 0.0736}, {"measurement": "area with substrate ENLYRQS", "value": 0.0638}]}, {"variant": "D137K", "values": [{"measurement": "area with substrate ENLYDQS", "value": 0.0615}, {"measurement": "area with substrate ENLYGQS", "value": 0.0628}, {"measurement": "area with substrate ENLYHQS", "value": 0.0758}, {"measurement": "area with substrate ENLYIQS", "value": 0.137}, {"measurement": "area with substrate ENLYKQS", "value": 0.055}, {"measurement": "area with substrate ENLYNQS", "value": 0.0804}, {"measurement": "area with substrate ENLYPQS", "value": 0.0887}, {"measurement": "area with substrate ENLYQQS", "value": 0.063}, {"measurement": "area with substrate ENLYWQS", "value": 0.0723}, {"measurement": "area with substrate ENLYYQS", "value": 0.0683}]}, {"variant": "I43T", "values": [{"measurement": "area with substrate ENLYDQS", "value": 0.0572}, {"measurement": "area with substrate ENLYEQS", "value": 0.0516}, {"measurement": "area with substrate ENLYGQS", "value": 0.053}, {"measurement": "area with substrate ENLYHQS", "value": 0.0576}, {"measurement": "area with substrate ENLYIQS", "value": 0.0941}, {"measurement": "area with substrate ENLYKQS", "value": 0.0543}, {"measurement": "area with substrate ENLYLQS", "value": 0.065}, {"measurement": "area with substrate ENLYMQS", "value": 0.0727}, {"measurement": "area with substrate ENLYNQS", "value": 0.0547}, {"measurement": "area with substrate ENLYPQS", "value": 0.0413}, {"measurement": "area with substrate ENLYQQS", "value": 0.0541}, {"measurement": "area with substrate ENLYRQS", "value": 0.0504}, {"measurement": "area with substrate ENLYSQS", "value": 0.0682}, {"measurement": "area with substrate ENLYTQS", "value": 0.0708}, {"measurement": "area with substrate ENLYVQS", "value": 0.0895}, {"measurement": "area with substrate ENLYWQS", "value": 0.0507}, {"measurement": "area with substrate ENLYYQS", "value": 0.0307}]}, {"variant": "T70D", "values": [{"measurement": "area with substrate ENLYDQS", "value": 0.0584}, {"measurement": "area with substrate ENLYGQS", "value": 0.0572}, {"measurement": "area with substrate ENLYHQS", "value": 0.0642}, {"measurement": "area with substrate ENLYKQS", "value": 0.0578}, {"measurement": "area with substrate ENLYMQS", "value": 0.0578}, {"measurement": "area with substrate ENLYNQS", "value": 0.0631}, {"measurement": "area with substrate ENLYRQS", "value": 0.0645}, {"measurement": "area with substrate ENLYSQS", "value": 0.0572}, {"measurement": "area with substrate ENLYTQS", "value": 0.0733}]}, {"variant": "S123V", "values": [{"measurement": "area with substrate ENLYDQS", "value": 0.0793}, {"measurement": "area with substrate ENLYEQS", "value": 0.0817}, {"measurement": "area with substrate ENLYGQS", "value": 0.0601}, {"measurement": "area with substrate ENLYHQS", "value": 0.074}, {"measurement": "area with substrate ENLYIQS", "value": 0.161}, {"measurement": "area with substrate ENLYKQS", "value": 0.0802}, {"measurement": "area with substrate ENLYMQS", "value": 0.0977}, {"measurement": "area with substrate ENLYNQS", "value": 0.0657}, {"measurement": "area with substrate ENLYPQS", "value": 0.074}, {"measurement": "area with substrate ENLYQQS", "value": 0.0633}, {"measurement": "area with substrate ENLYRQS", "value": 0.057}, {"measurement": "area with substrate ENLYSQS", "value": 0.0733}, {"measurement": "area with substrate ENLYTQS", "value": 0.0961}, {"measurement": "area with substrate ENLYVQS", "value": 0.121}, {"measurement": "area with substrate ENLYWQS", "value": 0.0837}, {"measurement": "area with substrate ENLYYQS", "value": 0.0093}]}, {"variant": "I139F", "values": [{"measurement": "area with substrate ENLYDQS", "value": 0.0931}, {"measurement": "area with substrate ENLYEQS", "value": 0.0769}, {"measurement": "area with substrate ENLYHQS", "value": 0.0731}, {"measurement": "area with substrate ENLYIQS", "value": 0.0704}, {"measurement": "area with substrate ENLYKQS", "value": 0.0573}, {"measurement": "area with substrate ENLYMQS", "value": 0.0888}, {"measurement": "area with substrate ENLYNQS", "value": 0.057}, {"measurement": "area with substrate ENLYPQS", "value": 0.0712}, {"measurement": "area with substrate ENLYQQS", "value": 0.0745}, {"measurement": "area with substrate ENLYRQS", "value": 0.0752}, {"measurement": "area with substrate ENLYVQS", "value": 0.101}, {"measurement": "area with substrate ENLYWQS", "value": 0.0866}]}, {"variant": "F41V", "values": [{"measurement": "area with substrate ENLYDQS", "value": 0.056}, {"measurement": "area with substrate ENLYEQS", "value": 0.108}, {"measurement": "area with substrate ENLYGQS", "value": 0.0674}, {"measurement": "area with substrate ENLYHQS", "value": 0.0664}, {"measurement": "area with substrate ENLYIQS", "value": 0.123}, {"measurement": "area with substrate ENLYKQS", "value": 0.0459}, {"measurement": "area with substrate ENLYMQS", "value": 0.0829}, {"measurement": "area with substrate ENLYNQS", "value": 0.0656}, {"measurement": "area with substrate ENLYPQS", "value": 0.093}, {"measurement": "area with substrate ENLYQQS", "value": 0.0797}, {"measurement": "area with substrate ENLYRQS", "value": 0.0501}, {"measurement": "area with substrate ENLYSQS", "value": 0.0442}, {"measurement": "area with substrate ENLYTQS", "value": 0.0764}, {"measurement": "area with substrate ENLYVQS", "value": 0.136}, {"measurement": "area with substrate ENLYWQS", "value": 0.0782}, {"measurement": "area with substrate ENLYYQS", "value": 0.0657}]}, {"variant": "I85M", "values": [{"measurement": "area with substrate ENLYDQS", "value": 0.0589}, {"measurement": "area with substrate ENLYEQS", "value": 0.0588}, {"measurement": "area with substrate ENLYGQS", "value": 0.0615}, {"measurement": "area with substrate ENLYHQS", "value": 0.0605}, {"measurement": "area with substrate ENLYKQS", "value": 0.0564}, {"measurement": "area with substrate ENLYMQS", "value": 0.0819}, {"measurement": "area with substrate ENLYNQS", "value": 0.0633}, {"measurement": "area with substrate ENLYPQS", "value": 0.0702}, {"measurement": "area with substrate ENLYQQS", "value": 0.0672}, {"measurement": "area with substrate ENLYRQS", "value": 0.0534}, {"measurement": "area with substrate ENLYSQS", "value": 0.0654}, {"measurement": "area with substrate ENLYYQS", "value": 0.0709}]}, {"variant": "P155C", "values": [{"measurement": "area with substrate ENLYDQS", "value": 0.0485}, {"measurement": "area with substrate ENLYEQS", "value": 0.0447}, {"measurement": "area with substrate ENLYGQS", "value": 0.0398}, {"measurement": "area with substrate ENLYHQS", "value": 0.0668}, {"measurement": "area with substrate ENLYIQS", "value": 0.13}, {"measurement": "area with substrate ENLYKQS", "value": 0.039}, {"measurement": "area with substrate ENLYNQS", "value": 0.0576}, {"measurement": "area with substrate ENLYPQS", "value": 0.0574}, {"measurement": "area with substrate ENLYQQS", "value": 0.0697}, {"measurement": "area with substrate ENLYRQS", "value": 0.076}, {"measurement": "area with substrate ENLYSQS", "value": 0.0688}, {"measurement": "area with substrate ENLYVQS", "value": 0.0914}, {"measurement": "area with substrate ENLYWQS", "value": 0.0771}, {"measurement": "area with substrate ENLYYQS", "value": 0.0642}]}, {"variant": "H76I", "values": [{"measurement": "area with substrate ENLYDQS", "value": 0.0471}, {"measurement": "area with substrate ENLYEQS", "value": 0.0621}, {"measurement": "area with substrate ENLYKQS", "value": 0.0578}, {"measurement": "area with substrate ENLYNQS", "value": 0.0824}, {"measurement": "area with substrate ENLYPQS", "value": 0.0606}, {"measurement": "area with substrate ENLYQQS", "value": 0.0839}, {"measurement": "area with substrate ENLYRQS", "value": 0.0538}, {"measurement": "area with substrate ENLYSQS", "value": 0.059}, {"measurement": "area with substrate ENLYYQS", "value": 0.0513}]}, {"variant": "G37N", "values": [{"measurement": "area with substrate ENLYDQS", "value": 0.046}, {"measurement": "area with substrate ENLYEQS", "value": 0.0488}, {"measurement": "area with substrate ENLYHQS", "value": 0.0613}, {"measurement": "area with substrate ENLYKQS", "value": 0.0674}, {"measurement": "area with substrate ENLYLQS", "value": 0.0468}, {"measurement": "area with substrate ENLYMQS", "value": 0.056}, {"measurement": "area with substrate ENLYQQS", "value": 0.0669}, {"measurement": "area with substrate ENLYRQS", "value": 0.0466}, {"measurement": "area with substrate ENLYSQS", "value": 0.0553}, {"measurement": "area with substrate ENLYWQS", "value": 0.0619}]}]}
